{
  "source": "PubChem BioAssay (NCATS)",
  "note": "Where “and” joins values, the source holds several entries; their conditions need not be identical. Equal values may be shown once. This list was built around the results that the source calls inconclusive (neither active nor inactive); the mix of calls is not that of the screen. Where the call is inconclusive, the potency comes from a doubtful curve fit. Calls of active or inactive are those of the source. The call rests on the fitted dose curve; in most records, active means well fitted cell-killing curve with a large enough effect; inconclusive means small, poorly fitted or top-dose-only effect, or effect the other way; inactive means no such curve, though single readings can be large or run the other way. Potency means the concentration at half of the fitted maximal effect; tags describe the fitted curve by direction and shape.",
  "data": [
    {"assay": "Viability qHTS for spleen associated tyrosine kinase inhibitor (SYKi) naive MV4-11 cells (AID 1963823); further: nearly all actives have a fitted effect of over 40% in size", "settings": "MV4-11 AML viability, CellTiter-Glo luminescence, 72 h; viability (% of control): at 45 µM (top of the series)", "method_in_brief": "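Seeding of 500 SYKi-naive MV4-11 cells per well onto pre-dispensed compounds preceded a 72 hr incubation at 37 C. Luminescent CellTiter-Glo signal, read after 10 min at room temperature, reflected viable cells.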", "values": [
      {"smiles": "CC1(C)CC[C@]2(C(=O)O[C@@H]3O[C@H](CO)[C@@H](O)[C@H](O)[C@H]3O)CC[C@]3(C)C(=CCC4[C@@]5(C)C[C@@H](O)[C@H](O)[C@](C)(C=O)C5CC[C@]43C)[C@@H]2[C@@H]1O", "note": "(some centres undefined)", "viability (% of control)": "inactive: 76.5% [at 17.3 µM]"},
      {"smiles": "C=C[C@]1(C)C[C@H](O)[C@H]2C(=C)C(=O)O[C@@H]2[C@H]1C(=C)CO", "Potency": "inconclusive: 18.4 µM [cytotoxic, single point]"},
      {"smiles": "OC[C@H]1O[C@@H](OCCc2ccccc2)[C@H](O)[C@@H](O)[C@@H]1O", "viability (% of control)": "inactive: 92.7%"},
      {"smiles": "CN(C)C(=O)NC1(c2ccccc2)CCN(CCC[C@]2(c3ccc(Cl)c(Cl)c3)CCCN(C(=O)c3ccccc3)C2)CC1", "Potency": "active: 2.59 µM"},
      {"smiles": "COc1ccc(-c2cc(=O)c3c(O)cc(O[C@@H]4O[C@H](CO[C@@H]5O[C@@H](C)[C@H](O)[C@@H](O)[C@H]5O)[C@@H](O)[C@H](O)[C@H]4O)cc3o2)cc1O", "Potency": "inconclusive: 4.17 µM [cytotoxic, partial curve, poor fit]"},
      {"smiles": "S=c1[nH]c2ccccc2s1", "Potency": "inconclusive: 0.306 µM [cytotoxic, full curve, poor fit]"},
      {"smiles": "C#Cc1ccc(-c2ccccc2F)cc1", "viability (% of control)": "inactive: 71.4%"},
      {"smiles": "C/C=C(\\C)C(=O)O[C@@H]1[C@@H](C)[C@]2(O)[C@@H]3C=C(C)C(=O)[C@H]3CC(CO)=C[C@H]2C2C(C)(C)[C@@]21OC(=O)C(C)CC", "note": "(some centres undefined)", "Potency": "inconclusive: 0.796 µM [cytotoxic, full curve]"},
      {"smiles": "COc1cc(C(=O)O)ccc1OC1OC(CO)C(O)C(O)C1O", "note": "(centres undefined)", "viability (% of control)": "inactive: 85.1%"},
      {"smiles": "C/C=C(/C)C(=O)O[C@H]1[C@H](OC(=O)/C(C)=C\\C)[C@@]23C(CC1(C)C)[C@]1(CCC4[C@@]5(C)CC[C@H](O[C@@H]6O[C@H](C(=O)O)[C@@H](O)[C@H](O[C@@H]7O[C@H](CO)[C@H](O)[C@H](O)[C@H]7O[C@@H]7O[C@@H](C)[C@H](O)[C@@H](O)[C@H]7O[C@@H]7OC[C@@H](O)[C@H](O)[C@H]7O)[C@H]6O[C@@H]6O[C@H](CO)[C@H](O)[C@H](O)[C@H]6O)C(C)(C)C5CC[C@@]4(C)[C@]1(C)C[C@H]2O)O[C@H]3O", "note": "(some centres undefined)", "Potency": "inconclusive: 1.74 µM [cytotoxic, partial curve, poor fit]"},
      {"smiles": "COC(=O)C1=CO[C@@H](O[C@@H]2O[C@H](CO)[C@@H](O)[C@H](O)[C@H]2O)[C@@H]2[C@@H](C)[C@@H](OC(=O)/C=C/c3ccccc3)[C@@H](O)[C@H]12", "viability (% of control)": "inactive: 67.9% [at 17.3 µM]"},
      {"smiles": "CCCCC(CC)CNC(=O)CC(C)OC(=O)CCC(=O)O", "note": "(centres undefined)", "viability (% of control)": "inactive: 76.2%"},
      {"smiles": "Cc1cccc(/C=N/Nc2cc(N3CCOCC3)n3nc(-c4ccncc4)cc3n2)c1", "Potency": "active: 1.03 µM"},
      {"smiles": "CC[C@@]1(O)C(=O)OCc2c1cc1n(c2=O)Cc2c-1nc1cc(F)c(C)c3c1c2[C@@H](N)CC3", "Potency": "inconclusive: 0.0059 µM [cytotoxic, full curve]"},
      {"smiles": "N#Cc1cnc2cnc(NCc3cccnc3)cc2c1Nc1ccc(F)c(Cl)c1", "Potency": "inconclusive: 0.92 µM [cytotoxic, full curve]"},
      {"smiles": "CCn1c(-c2nonc2N)nc2cncc(C(=O)N3CC[C@H](N)C3)c21", "Potency": "inconclusive: 1.46 µM [cytotoxic, full curve]"},
      {"smiles": "COC1C(=O)CCC2(CO2)C1(O)C1(C)OC1CC=C(C)C", "note": "(centres undefined)", "Potency": "inconclusive: 14.6 µM [cytotoxic, partial curve]"},
      {"smiles": "CC(C)N(CCCNC(=O)Nc1ccc(C(C)(C)C)cc1)C[C@H]1O[C@@H](n2ccc3c(N)ncnc32)[C@H](O)[C@@H]1O", "Potency": "inconclusive: 3.26 µM [cytotoxic, partial curve, poor fit] and inconclusive: 11.8 µM [cytotoxic, partial curve]"},
      {"smiles": "COc1cc(O)cc(/C=C/c2ccc(O[C@@H]3O[C@H](CO)[C@@H](O)[C@H](O)[C@H]3O)cc2)c1", "Potency": "inconclusive: 14.2 µM [cytotoxic, single point]"},
      {"smiles": "CC(C)CCNC(=O)c1ccc2c(c1)nc(Nc1n[nH]c3ccc(-c4ccccc4OC(F)(F)F)cc13)n2C1CCC(O)CC1", "note": "(centres undefined)", "Potency": "active: 16.4 µM"},
      {"smiles": "C=C(C)[C@H]1CC[C@]2(C(=O)O)CC[C@]3(C)C(CCC4[C@@]5(C)CCC(=O)C(C)(C)C5CC[C@]43C)C12", "note": "(some centres undefined)", "Potency": "inconclusive: 3.55 µM [cytotoxic, partial curve]"},
      {"smiles": "OCCc1ccccc1", "Potency": "inconclusive: 1.06 µM [rising, partial curve]"},
      {"smiles": "CCCCOc1ccc(CC/C=C2\\SC(=O)N(CCN)C2=O)cc1", "Potency": "active: 5.17 µM"},
      {"smiles": "CC1=C(C(=O)O)N2C(=O)[C@@H](NC(=O)[C@H](N)c3ccc(O)cc3)[C@H]2SC1", "viability (% of control)": "inactive: 55.5%"},
      {"smiles": "COC(=O)CCSCc1ccc(-c2onc(C)c2NC(=O)OC(C)c2ccccc2Cl)cc1", "note": "(centres undefined)", "Potency": "inconclusive: 16.4 µM [cytotoxic, partial curve, poor fit]"},
      {"smiles": "COc1cc2c3c(cc4ccccc4c3c1O)NC2=O", "Potency": "inconclusive: 20.6 µM [cytotoxic, partial curve]"},
      {"smiles": "Cc1cc(O[C@@H](CCC(F)(F)F)c2ccc(C(=O)NCCC(=O)O)cc2)cc(C)c1-c1ccc(C(C)(C)C)cc1", "Potency": "active: 13.2 µM"},
      {"smiles": "CC1CC2OCC3(O)CCC(O)C(C14CC(c1ccoc1)OC4=O)C23CO", "note": "(centres undefined)", "Potency": "inconclusive: 0.0321 µM [cytotoxic, full curve, poor fit]"},
      {"smiles": "C[C@@H]1CCN(C(=O)[C@H](CCCN=C(N)N)NS(=O)(=O)c2cccc3c2NC[C@H](C)C3)[C@@H](C(=O)O)C1", "viability (% of control)": "inactive: 82.3%"},
      {"smiles": "CC(C)C1NC(=O)CNC(=O)C2CCCN2C(=O)C(Cc2c[nH]c3ccccc23)NC(=O)CNC(=O)C(C(O)c2ccc(O)cc2)NC(=O)CNC1=O", "note": "(centres undefined)", "viability (% of control)": "inactive: 79.6% [at 17.3 µM]"},
      {"smiles": "CN(C)C/C=C/C(=O)Nc1ccc(C(=O)N2CCC[C@@H](Nc3ncc(Cl)c(-c4c[nH]c5ccccc45)n3)C2)cc1", "Potency": "inconclusive: 0.0468 µM [cytotoxic, full curve]"},
      {"smiles": "CC(=O)OC[C@]12[C@H](OC(C)=O)C(=O)[C@@H]3[C@@H](OC(C)=O)[C@@]14O[C@@]3(C)COC(=O)c1cccnc1[C@@H](C)[C@H](C)C(=O)O[C@@H]([C@H](OC(C)=O)[C@@H]2OC(C)=O)[C@]4(C)O", "Potency": "inconclusive: 0.0015 µM [rising, full curve, poor fit]"},
      {"smiles": "COC(=O)C#Cc1ccc([N+](=O)[O-])cc1", "Potency": "inconclusive: 5.8 µM [cytotoxic, full curve]"},
      {"smiles": "COc1ccc(-c2ccn(CC[C@](C)(C(=O)NO)S(C)(=O)=O)c(=O)c2)c(F)c1", "Potency": "inconclusive: 9.2 µM [cytotoxic, partial curve]"},
      {"smiles": "O=C(Nc1cccc([N+](=O)[O-])c1)c1cccc(S(=O)(=O)N2CCCCCC2)c1", "Potency": "inconclusive: 9.2 µM [cytotoxic, partial curve]"},
      {"smiles": "C=C1C(=O)O[C@H]2[C@H]1[C@@H](OC(=O)/C(C)=C\\C)C[C@]1(C)O[C@@H]1[C@H]1O[C@H]1C(=C)[C@H]2O", "Potency": "active: 8.05 µM"},
      {"smiles": "CC#CC(=O)Nc1ccc2ncnc(Nc3cccc(Br)c3)c2c1", "Potency": "active: 1.46 µM and inconclusive: 411 nM [cytotoxic, full curve]"},
      {"smiles": "C=CC(=O)Nc1ccc(CN2C(=O)N(c3cc(OC)cc(OC)c3)Cc3cnc(Nc4ccc(N5CCN(C)CC5)cc4)nc32)cc1", "Potency": "active: 1.16 µM"},
      {"smiles": "COc1ccc(N2CCOCC2)c2sc(NC(=O)N3CCC(C)(O)CC3)nc12", "Potency": "inconclusive: 18.4 µM [cytotoxic, partial curve, poor fit]"}
    ]}
  ]
}
